According to PubChem BioAssay AID686979 (National Center for Advancing Translational Sciences (NCATS), 2013):
Several values for one entry are separate records, joined by “and”; a condition that tells them apart may be missing. Identical values can stand only once. About 50,000 (12%) of roughly 420,000 compounds were called active. Inconclusive results, whose numbers are uncertain, are shown with a selection of clear calls. Calls come from the whole dose curve; as a rule, active = well fitted inhibition curve with a large enough effect; inconclusive = small, poorly fitted or top-dose-only effect; inactive = flat fitted curve, though single readings scatter. No potency is given beside an inconclusive call; the fits are too rough.

Assay: qHTS for Inhibitors of human tyrosyl-DNA phosphodiesterase 1 (TDP1): qHTS in cells in presence of CPT; note: nearly all actives have a fitted effect of over 55% in size
Conditions: chicken DT40 Tdp1-/-;hTDP1 cells + 20 nM CPT, ATP luminescence, 48 h; activity change, negative = growth inhibition: at 46.2 µM (top of the series)
Procedure, shortened: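 Chicken DT40 Tdp1-/- cells stably complemented with human TDP1 were seeded at 400 cells/well in medium containing 20 nM camptothecin, exposed to pin-transferred compounds, and grown at 37 °C for at least 48 hr. Viability was read as ATP luminescence.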
% is set by controls: 0 for no effect and ±100 for the full control effect; potency is the fitted concentration of half-maximal effect; tags give direction and shape of the fitted curve.

Compound	Potency	activity change, negative = growth inhibition
CN(Cc1ccc(Cl)cc1Cl)C(=O)Cc1ccc(S(=O)(=O)N2CCOCC2)s1	inconclusive [inhibitor, single point]	
CC(=C/C(=O)O)/C=C/c1ccc(Cl)o1	inactive	
CCN1C(=O)/C(=C2/Sc3ccccc3N2CC)SC1=S	inactive	
COC(=O)c1ccc(NC(=O)CSc2ccc(-c3sc(-c4ccccc4)nc3C)nn2)cc1	inconclusive [inhibitor, single point]	
COc1ccc(CCNC(=O)c2ccc(CSc3ccc(Cl)cc3)o2)cc1OC	active: 13.2 µM	
Cc1cc(C)n(-c2ccc(C(=O)NCC(=O)Nc3cc(Cl)ccc3Cl)cc2)n1	inactive	
COc1ccc2oc(=O)cc(CN3CCN(Cc4ccc(OC)c(OC)c4OC)CC3)c2c1	inconclusive [inhibitor, partial curve]	
O=C(Nc1sc2c(c1C(=O)O)CCC2)c1cccs1	inactive	
C=CCn1c2ccccc2n2nc(C)c(=O)nc12	inactive	
COc1ccc(Nc2ncc3c(n2)CCN(Cc2ccccc2C)C3)c(OC)c1	inconclusive [inhibitor, full curve, poor fit]	
N#Cc1cccc(C(c2nnnn2Cc2ccccc2)N2CCCC2)c1 (stereo not drawn)	inactive	
CC(C)(C)OC(=O)N1CCC(NC(=O)c2[nH]cnc2C(=O)Nc2ccc(Cl)cc2)CC1	inconclusive [inhibitor, single point]	
O=C(Cn1c(=O)c2cccn2c2cccnc21)NCCCN1CCN(c2ccc(F)cc2)CC1	inactive	
CCCN(CC(=O)Nc1ccccc1OC)C(=O)c1ccc(S(=O)(=O)Nc2ccccc2OC)cc1	inconclusive [inhibitor, single point]	
CCOC(=O)[C@]12CCC=C1N(Cc1ccc(Cl)cc1Cl)C(=O)[C@H](CC(=O)NCCc1ccccc1OC)C2	inconclusive [inhibitor, single point]	
Cc1nnc(SCC(=O)c2cc(C)n(C3CC3)c2C)s1	inactive	
COc1cccc(-c2cnc(C(O)c3ccc(Cl)c(F)c3)[nH]2)c1 (stereo not drawn)	active: 14.6 µM	
O=C(NNS(=O)(=O)c1ccccc1)C1CCN(S(=O)(=O)c2ccc(Cl)cc2)CC1	inconclusive [inhibitor, single point]	
Oc1c(C(c2ccccn2)N2CCOCC2)ccc2cccnc12 (stereo not drawn)	active: 16.4 µM	
c1coc(CNc2ncnc3ccccc23)c1	active: 7.08 µM and active: 10.3 µM	
CCCc1nc2ccc(C)cn2c1Cc1ccccc1	inconclusive [inhibitor, single point]	
CC1CC(C)CN(C(=O)/C(=C\c2ccccc2)c2ccccc2)C1 (stereo not drawn)	active: 16.4 µM	
CCCCc1ccc(N/C(N)=N/c2nc(C)cc(C)n2)cc1	inconclusive [inhibitor, partial curve, poor fit]	
O=C(C1CCCN(S(=O)(=O)c2cccc3nonc23)C1)N1CCC(Cc2ccccc2)CC1 (stereo not drawn)	active: 20.6 µM	

Compound	Potency	activity change, negative = growth inhibition
CN(C)c1ccccc1-c1cc(NC=O)c2ncc(-c3cccc(C(F)(F)F)c3)n2c1	inconclusive [inhibitor, single point]	
Cc1ccc(NC(=O)CN(C)C(=O)COC(=O)CNS(=O)(=O)c2ccc(Br)cc2Cl)cc1	inactive	
O=C(c1nc2nc(-c3cccs3)cc(C(F)(F)F)n2n1)N1CCN(Cc2ccccc2)CC1	inconclusive [inhibitor, single point]	
C/C(=N\NC(=O)c1ccc(OC2CCCC2)cc1)c1ccc(O)cc1	inconclusive [inhibitor, single point]	
COc1cc(/C=N/NC(=O)CC2(C)OCCCO2)ccc1OCc1ccc(Cl)cc1Cl	inconclusive [inhibitor, partial curve]	
NC(=O)CC(NC(=O)c1ccccc1)c1ccc(N2CCCCCCC2)c([N+](=O)[O-])c1 (stereo not drawn)	active: 8.2 µM	
C/C(=N\Nc1nc2ccc(Cl)cc2o1)c1ccccc1	inactive	
O=C(C1=C(O)C(=O)N(CCN2CCOCC2)C1c1ccccc1)c1cccs1 (stereo not drawn)	inactive	
Cc1ccc(C)c(C(=O)n2cnnc2N)c1	inconclusive [inhibitor, single point]	
COc1cc(S(=O)(=O)N(Cc2ccccn2)Cc2ccco2)ccc1-n1cnnn1		inconclusive: -31.4% [inhibitor]
Nc1cccc2c1C(=O)N(C(=O)/C=C/c1cccc(F)c1)C2=O	inconclusive [inhibitor, partial curve, poor fit]	
COc1ccc(NC(=S)NC2CCCCCC2)c(OC)c1	inconclusive [inhibitor, single point]	
O=C(c1cnc2ccc3ccccc3c2c1)c1cc(F)ccc1O	active: 7.31 µM	
COC(=O)c1c(C)oc2ccc(N(C(=O)c3ccncc3)S(=O)(=O)c3ccc(OC)cc3)cc12	active: 0.58 µM	
CCOC(=O)n1c(=O)n(Cc2ccccc2C)c2ccccc21	inactive	
CC(NC(=O)CC(c1ccccc1)c1cc(Cl)ccc1O)c1ccccc1 (stereo not drawn)	active: 14.6 µM	
CC(C)c1ccc(/C=C2\SC(N3CCOCC3)=NC2=O)cc1	inconclusive [inhibitor, single point]	
O=C(NCc1cccnc1)c1ccc(COc2ccccc2Cl)o1	inconclusive [inhibitor, single point]	
CCOC(=O)c1cnc2ccc(C(=O)OC)cc2c1NCCCN1CCOCC1	inconclusive [inhibitor, single point]	
COc1cccc(OC)c1C(=O)N1CCNCC1	inactive	
COc1ccc(CNc2nn3c(-c4cccc(C(=O)N(C)C)c4)cnc3s2)cc1	active: 23.1 µM	
CCOc1ccc(NC(=O)NCCN2C(C)CCCC2C)cc1 (stereo not drawn)	inconclusive [inhibitor, single point]	
COC(=O)C1Cc2ccccc2CN1S(=O)(=O)c1ccc(F)cc1 (stereo not drawn)	inactive	
O=C(c1ccco1)N1CCN(C(c2ccccc2)c2nnnn2Cc2cccs2)CC1 (stereo not drawn)	inactive	
